In PubChem BioAssay AID686978 (National Center for Advancing Translational Sciences (NCATS), 2013):
Out of some 420,000 compounds screened, about 64,000 (15%) were called active. Inconclusive means that the source gave no clear call. Such entries were picked first, then a sample of the others. Calls follow the shape of the dose curve; as a rule, active = well fitted inhibition curve with a large enough effect; inconclusive = small, poorly fitted or top-dose-only effect; inactive = flat fitted curve, though single readings scatter. No potency is given beside an inconclusive call; the fits are too rough.

test: qHTS for Inhibitors of human tyrosyl-DNA phosphodiesterase 1 (TDP1): qHTS in cells in absence of CPT; details: DT40 Tdp1-/- hTDP1 cells, no CPT, ATP luminescence, 48 h; activity change, negative = growth inhibition: at 46.2 µM (top of the series); also: nearly all actives have a fitted effect of over 55% in size
Summary of the method: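 Cells were dispensed at 400 per well, compounds added by pin tool, plates incubated ≥48 hr at 37 °C, then CellTiter-Glo added for 30 min at room temperature before luminescence reading. Line: DT40 Tdp1-/- complemented with hTDP1; camptothecin omitted.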
% is scaled to controls: 0 for no effect and ±100 for the full control effect; potency is read from the fitted curve at half-maximal effect; tags tell the direction and shape of the fitted curve.

Q: Which Potency does the source give for `C[C@H]1CN([C@@H](C)CO)S(=O)(=O)c2ccc(Br)cc2O[C@H]1CN(C)C(=O)Cc1ccccc1` here?
A: The Potency was inconclusive [inhibitor, partial curve, poor fit].

Q: For `COc1ccccc1NC(=O)CS(=O)(=O)c1cn(CC(=O)N(C(C)C)C(C)C)c2ccccc12`, which Potency is on record?
A: Its Potency is inconclusive [inhibitor, single point].

Q: With `c1ccc(C2c3[nH]c4ccccc4c3CCN2Cc2cccn2-c2ccccn2)nc1` (stereo unspecified) as the compound, how does the Potency read?
A: Its Potency is inconclusive [inhibitor, single point].

Q: For `Cc1ccccc1OCC(=O)NNC(=O)c1ccc(-n2cncn2)c([N+](=O)[O-])c1`, which Potency is on record?
A: Its Potency is inconclusive [inhibitor, single point].

Q: For `Cc1ccc2c(c1)c1c(n2CC(O)CNC2CCCCC2)CCCC1` (stereo unspecified), which Potency is on record?
A: The Potency was active: 14.6 µM.

Q: For `COc1ccc(C(C(=O)NC(C)(C)C)N(C(=O)CCC(=O)Nc2cc(C)on2)c2cccc(C)c2C)cc1` (stereo unspecified), which Potency is on record?
A: The Potency was inconclusive [inhibitor, partial curve].

Q: With `CSc1cnn(-c2ccccc2)c(=O)c1SC` as the compound, how does the Potency read?
A: The Potency was “inactive”.

Q: Which Potency does the source give for `COc1ccccc1NC(=O)CSC(N)=O` here?
A: Its Potency is active: 20.6 µM.

Q: For `O=S(=O)(c1ccccc1)c1cnc(-c2cccnc2)nc1-c1ccc(Cl)cc1Cl`, which Potency is on record?
A: Its Potency is inconclusive [inhibitor, full curve].

Q: Which Potency does the source give for `O=C(NCCc1ccc2c(c1)OCCO2)c1cc(S(=O)(=O)N2CCCC2)ccc1Br` here?
A: Its Potency is inconclusive [inhibitor, single point].

Q: Which Potency does the source give for `COc1cc(C(=O)NCCSc2ccccc2)cc(OC)c1OC` here?
A: Its Potency is inconclusive [inhibitor, full curve, poor fit].

Q: With `CC(Oc1ccc(Br)cc1)C(=O)Nc1nnc(C2CC2)s1` (stereo unspecified) as the compound, how does the Potency read?
A: Its Potency is “inactive”.

Q: Which Potency does the source give for `COc1cc(NC(=O)[C@@H](NC(=O)c2ccco2)C(C)C)c(OC)cc1NC(=O)c1ccccc1` here?
A: The Potency was inconclusive [inhibitor, single point].

Q: With `Cc1ccc(C)c(S(=O)(=O)N2CCCOC2CNC(=O)C(=O)NCc2ccc3c(c2)OCO3)c1` (stereo unspecified) as the compound, how does the Potency read?
A: The Potency was inconclusive [inhibitor, single point].

Q: For `Cc1ccc(-c2csc(NNC(=O)c3ccccc3)n2)cc1`, which Potency is on record?
A: Its Potency is active: 5.17 µM.

Q: For `CC(C)c1nnc(NC(=O)COc2ccccc2[N+](=O)[O-])s1`, which Potency is on record?
A: The Potency was “inactive”.

Q: For `Cc1cccc(C)c1NC(=O)c1csc(COCCO)n1`, which Potency is on record?
A: The Potency was “inactive”.

Q: With `CCOc1ccc2nc(NC(=O)c3nc(SCc4ccc(C)cc4)ncc3Cl)sc2c1` as the compound, how does the Potency read?
A: Its Potency is “inactive”.

Q: With `CN(Cc1ccccc1)C(=O)CCC1CCN(C(=O)c2ccco2)CC1` as the compound, how does the Potency read?
A: The Potency was inconclusive [inhibitor, single point].

Q: For `COc1ccc(CN(C)C(=O)C2CCN(S(=O)(=O)c3cccs3)CC2)cc1F`, which Potency is on record?
A: Its Potency is inconclusive [inhibitor, single point].

Q: For `O=C(Nc1cccc(NC(=O)c2cccc(F)c2)n1)c1cccc(F)c1`, which Potency is on record?
A: The Potency was active: 20.6 µM.

Q: With `Cc1cccc(C)c1NC(=O)CN1CCc2ccccc2C1` as the compound, how does the Potency read?
A: The Potency was active: 16.4 µM.

Q: For `Cc1oc(-c2ccccc2)cc1C(=O)Nc1cccc(/C=C/C(=O)O)c1`, which Potency is on record?
A: The Potency was inconclusive [inhibitor, partial curve].

Q: With `CCOC(=O)c1ccc(NC(=O)c2cc(S(=O)(=O)N3CCOCC3)ccc2O)cc1` as the compound, how does the Potency read?
A: The Potency was active: 20.6 µM.

Q: With `Cc1ccc(Cn2cccc2C2=NC(C)CO2)cc1` (stereo unspecified) as the compound, how does the Potency read?
A: Its Potency is “inactive”.

Q: For `Cc1ccc(CNC(=O)CNC(=O)c2ccc(C(C)(C)C)cc2)n1C`, which activity change, negative = growth inhibition is on record?
A: The activity change, negative = growth inhibition was inconclusive: -32.2% [inhibitor].

Q: Which Potency does the source give for `O=C(CCCSc1nc(-c2ccco2)cc(C(F)(F)F)n1)NCc1cccs1` here?
A: Its Potency is inconclusive [inhibitor, single point].

Q: Which Potency does the source give for `CCOc1ccc(C(=O)Nc2ccc3nc4c(c(Nc5ccccc5OC)c3c2)CCCC4)cc1` here?
A: The Potency was active: 4.61 µM.

Q: With `Cc1cccc(C)c1NC(=O)CN(C)S(=O)(=O)c1ccc2[nH]c3c(c2c1)CCCC3` as the compound, how does the Potency read?
A: Its Potency is active: 20.6 µM.

Q: With `CCOc1ccc(N(CC(=O)NCc2cccs2)S(=O)(=O)c2c(C)noc2C)cc1` as the compound, how does the Potency read?
A: Its Potency is inconclusive [inhibitor, single point].

Q: For `O=C(COc1ccc(Nc2ccccc2)cc1)OCC(=O)N1CCCCC1`, which Potency is on record?
A: The Potency was “inactive”.

Q: For `CC(C)COc1ccc(C(=O)N2CCC(c3nc4ccccc4s3)CC2)cc1`, which Potency is on record?
A: Its Potency is inconclusive [inhibitor, single point].

Q: For `Cc1ccc2occ(CC(=O)Nc3c(C(=O)Nc4ccc(Cl)cc4)oc4ccccc34)c2c1`, which Potency is on record?
A: Its Potency is inconclusive [inhibitor, single point].

Q: Which Potency does the source give for `COC(=O)c1ccc(C(=O)OC)c(NC(=O)CCS(=O)(=O)Cc2ccccc2)c1` here?
A: The Potency was “inactive”.

Q: For `Cc1cc(-c2ccccc2)nc(N/N=C/c2ccco2)n1`, which Potency is on record?
A: Its Potency is inconclusive [inhibitor, single point].

Q: For `O=C(CC1N=C2c3ccccc3N=C(SCC(=O)Nc3ccccc3F)N2C1=O)NCc1ccc2c(c1)OCO2` (stereo unspecified), which Potency is on record?
A: Its Potency is inconclusive [inhibitor, single point].

Q: For `O=c1cnc2cnc(Oc3ccccc3)nc2n1C[C@H]1CCCO1`, which Potency is on record?
A: The Potency was inconclusive [inhibitor, partial curve].

Q: Which Potency does the source give for `O=C(Nc1nc(-c2ccc(S(=O)(=O)N3CCCCCC3)cc2)cs1)c1cccs1` here?
A: The Potency was active: 20.6 µM.

Q: For `CCOc1ccc(NC(=O)Cc2cccc3ccccc23)c([N+](=O)[O-])c1`, which Potency is on record?
A: Its Potency is inconclusive [inhibitor, single point].

Q: With `O=C(COC(=O)c1ccc2ccccc2n1)c1ccccc1` as the compound, how does the Potency read?
A: Its Potency is “inactive”.

Q: Which Potency does the source give for `CCCCC(CC)C(=O)Nc1cc(C(=O)NCCC)ccc1N1CCC2(CC1)CC(c1ccccc1)=NO2` (stereo unspecified) here?
A: Its Potency is inconclusive [inhibitor, partial curve].

Q: For `COc1ccc(NC(=O)c2[nH]c(C)c(C(C)=O)c2C)cc1`, which Potency is on record?
A: Its Potency is inconclusive [inhibitor, single point].

Q: Which Potency does the source give for `Cc1ccc(CSc2nncn3c2cc2sccc23)cc1` here?
A: Its Potency is “inactive”.

Q: With `CCOC(=O)N1CCN(Cc2ccc3c(c2)CN(C(=O)c2ccc(C#CC(C)(C)O)o2)CCO3)CC1` as the compound, how does the Potency read?
A: Its Potency is active: 9.2 µM.

Q: Which Potency does the source give for `Cc1cc(C)n(C(=O)c2cc3ccccc3c(=O)o2)n1` here?
A: Its Potency is “inactive”.

Q: With `CC(C)Sc1nc(C(F)(F)F)cc(=O)n1-c1ccccc1` as the compound, how does the Potency read?
A: Its Potency is “inactive”.
